# Measured values: article PMC9060002
# Amino acid sequences for entries named in this document (tags omitted). A change or cut given only in a name is not applied to a line headed by its entry. Chains listed by the source or under a name are the forms on record and can include a tag or linker.
# UniProt P13569: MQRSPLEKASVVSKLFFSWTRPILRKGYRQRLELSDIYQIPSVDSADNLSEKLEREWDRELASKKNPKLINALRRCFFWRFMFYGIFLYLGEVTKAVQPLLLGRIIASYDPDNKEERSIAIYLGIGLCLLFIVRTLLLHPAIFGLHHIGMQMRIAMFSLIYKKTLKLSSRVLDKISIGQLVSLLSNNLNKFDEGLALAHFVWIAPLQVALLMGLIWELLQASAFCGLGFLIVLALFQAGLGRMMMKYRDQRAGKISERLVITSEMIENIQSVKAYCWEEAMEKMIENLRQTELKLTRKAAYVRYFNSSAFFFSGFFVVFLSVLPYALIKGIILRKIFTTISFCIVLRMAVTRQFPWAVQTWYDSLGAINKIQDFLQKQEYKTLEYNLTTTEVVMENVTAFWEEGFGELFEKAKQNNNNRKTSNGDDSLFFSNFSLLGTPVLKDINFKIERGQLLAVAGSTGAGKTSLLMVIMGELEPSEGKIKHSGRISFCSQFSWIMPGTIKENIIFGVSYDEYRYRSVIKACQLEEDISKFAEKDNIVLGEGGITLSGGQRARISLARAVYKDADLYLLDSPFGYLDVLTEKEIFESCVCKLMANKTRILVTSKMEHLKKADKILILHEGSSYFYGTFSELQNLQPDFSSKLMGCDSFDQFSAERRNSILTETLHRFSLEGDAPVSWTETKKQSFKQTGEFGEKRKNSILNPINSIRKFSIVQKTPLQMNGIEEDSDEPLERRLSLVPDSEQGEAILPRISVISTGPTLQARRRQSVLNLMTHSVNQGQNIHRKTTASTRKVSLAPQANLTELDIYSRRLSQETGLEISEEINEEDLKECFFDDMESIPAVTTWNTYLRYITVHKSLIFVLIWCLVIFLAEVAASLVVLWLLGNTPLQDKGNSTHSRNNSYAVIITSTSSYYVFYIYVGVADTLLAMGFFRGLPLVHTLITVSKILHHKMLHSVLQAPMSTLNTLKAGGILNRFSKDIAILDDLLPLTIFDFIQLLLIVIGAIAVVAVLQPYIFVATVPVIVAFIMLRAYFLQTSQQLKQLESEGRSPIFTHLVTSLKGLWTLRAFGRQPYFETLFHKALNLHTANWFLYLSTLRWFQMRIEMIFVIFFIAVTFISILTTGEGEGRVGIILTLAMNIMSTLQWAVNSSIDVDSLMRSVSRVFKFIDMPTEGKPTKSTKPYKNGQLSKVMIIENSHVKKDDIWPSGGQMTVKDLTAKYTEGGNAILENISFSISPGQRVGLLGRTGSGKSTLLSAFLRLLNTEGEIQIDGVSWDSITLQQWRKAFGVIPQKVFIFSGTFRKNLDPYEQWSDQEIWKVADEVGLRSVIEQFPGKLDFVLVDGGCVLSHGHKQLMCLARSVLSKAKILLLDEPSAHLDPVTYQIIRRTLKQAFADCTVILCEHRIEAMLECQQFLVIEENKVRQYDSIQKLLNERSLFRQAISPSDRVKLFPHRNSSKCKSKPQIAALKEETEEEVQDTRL
# F508del-CFTR (CFTR with deletion of phenylalanine 508) (P13569, form named): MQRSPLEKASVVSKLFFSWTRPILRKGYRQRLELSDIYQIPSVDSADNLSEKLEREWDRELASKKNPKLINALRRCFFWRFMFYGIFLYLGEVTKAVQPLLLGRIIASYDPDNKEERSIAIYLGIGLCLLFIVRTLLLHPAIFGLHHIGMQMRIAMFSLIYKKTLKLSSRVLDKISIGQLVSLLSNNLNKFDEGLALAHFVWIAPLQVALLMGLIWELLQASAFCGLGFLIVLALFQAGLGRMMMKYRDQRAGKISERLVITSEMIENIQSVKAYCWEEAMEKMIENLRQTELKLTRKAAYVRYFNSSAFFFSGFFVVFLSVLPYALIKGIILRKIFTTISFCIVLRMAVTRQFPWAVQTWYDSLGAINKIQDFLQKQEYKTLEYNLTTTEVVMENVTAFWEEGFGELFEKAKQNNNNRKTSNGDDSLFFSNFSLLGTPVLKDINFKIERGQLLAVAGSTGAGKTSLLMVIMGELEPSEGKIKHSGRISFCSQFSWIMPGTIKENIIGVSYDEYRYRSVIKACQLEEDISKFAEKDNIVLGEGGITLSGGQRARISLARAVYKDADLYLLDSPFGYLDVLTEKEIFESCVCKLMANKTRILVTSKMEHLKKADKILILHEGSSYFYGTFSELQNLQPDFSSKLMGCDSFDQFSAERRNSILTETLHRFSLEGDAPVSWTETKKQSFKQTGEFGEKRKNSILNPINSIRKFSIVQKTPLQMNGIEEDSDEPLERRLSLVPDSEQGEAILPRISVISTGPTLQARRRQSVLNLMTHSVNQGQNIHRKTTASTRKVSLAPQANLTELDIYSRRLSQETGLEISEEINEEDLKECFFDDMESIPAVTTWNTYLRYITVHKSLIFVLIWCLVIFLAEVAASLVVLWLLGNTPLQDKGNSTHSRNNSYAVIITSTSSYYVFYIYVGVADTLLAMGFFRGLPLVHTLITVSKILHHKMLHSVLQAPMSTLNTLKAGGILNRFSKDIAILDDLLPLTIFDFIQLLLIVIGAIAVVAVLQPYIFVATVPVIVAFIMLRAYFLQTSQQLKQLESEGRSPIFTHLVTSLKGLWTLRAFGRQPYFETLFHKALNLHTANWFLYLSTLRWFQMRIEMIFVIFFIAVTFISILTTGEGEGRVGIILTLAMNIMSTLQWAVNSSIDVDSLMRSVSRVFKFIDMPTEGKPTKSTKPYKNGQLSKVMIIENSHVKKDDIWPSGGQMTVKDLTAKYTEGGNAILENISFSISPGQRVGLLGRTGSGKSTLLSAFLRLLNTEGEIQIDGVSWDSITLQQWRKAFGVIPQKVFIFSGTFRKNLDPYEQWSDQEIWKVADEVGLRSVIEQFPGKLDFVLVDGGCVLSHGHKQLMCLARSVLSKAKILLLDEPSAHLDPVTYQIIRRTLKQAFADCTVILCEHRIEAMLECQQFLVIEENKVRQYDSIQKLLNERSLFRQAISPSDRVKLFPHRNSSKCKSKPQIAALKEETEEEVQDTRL
# UniProt Q15672: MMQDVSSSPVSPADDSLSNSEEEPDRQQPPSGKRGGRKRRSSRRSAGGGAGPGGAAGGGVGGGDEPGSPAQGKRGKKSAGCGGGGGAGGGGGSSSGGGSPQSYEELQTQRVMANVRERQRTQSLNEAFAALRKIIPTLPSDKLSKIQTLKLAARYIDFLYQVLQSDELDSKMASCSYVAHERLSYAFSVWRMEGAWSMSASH
# UniProt P46937: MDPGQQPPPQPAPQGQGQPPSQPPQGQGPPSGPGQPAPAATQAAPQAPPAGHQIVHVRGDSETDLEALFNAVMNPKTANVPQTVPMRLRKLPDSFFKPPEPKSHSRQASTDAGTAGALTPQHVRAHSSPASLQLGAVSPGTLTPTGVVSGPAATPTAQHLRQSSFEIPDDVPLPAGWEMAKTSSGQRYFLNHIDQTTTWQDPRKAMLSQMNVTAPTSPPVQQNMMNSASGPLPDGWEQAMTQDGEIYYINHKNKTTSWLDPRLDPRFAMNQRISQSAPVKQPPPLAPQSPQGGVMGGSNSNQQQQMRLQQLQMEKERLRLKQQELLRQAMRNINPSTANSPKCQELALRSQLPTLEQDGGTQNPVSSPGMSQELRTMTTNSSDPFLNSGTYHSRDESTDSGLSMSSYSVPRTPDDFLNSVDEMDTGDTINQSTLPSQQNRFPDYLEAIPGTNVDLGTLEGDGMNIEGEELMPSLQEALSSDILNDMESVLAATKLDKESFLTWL
# These are yes or no findings as the source states them, for the method shown. In cells and extracts the contact can be indirect. Some entries that bind do so weakly or less than the wild type.
# How the values were obtained:
# Assay in all cases: co-IP; CFBE wt- and F508del-CFTR cells lysed in Triton lysis buffer (25 mM Tris-HCl pH 7.4, 150 mM NaCl, 1% Triton X-100); pre-cleared supernatants incubated overnight at 4°C with anti-YAP1, anti-CFTR or anti-TWIST1 antibodies crosslinked to Protein G agarose beads; washes with 300 mM NaCl; Western blot; qualitative
# [1] = biological target: F508del-CFTR (CFTR with deletion of phenylalanine 508) (human) (UniProt P13569)
# [2] = biological target: wt-CFTR (cystic fibrosis transmembrane conductance regulator, wild type) (human) (UniProt P13569)
# [3] = biological target: TWIST1 (human (endogenous in CFBE)) (UniProt Q15672)
Substance,binding [1],binding [2],binding [3]
TWIST1 (from UniProt Q15672 1-202),binds,binds,–
Yes-associated protein 1 (YAP1) (from UniProt P46937 1-504),binds,no binding,no binding
